Drawing on publication PMC4329010, this text covers binding for 8 molecules.

These are yes or no findings as the source states them, for the method shown. Binding seen in cells or lysates may run through a third protein. Some results given as binding are weak or reduced against the parent protein; the word gives no strength. Tags and fused reporters may be left off the sequences shown.

The target of assay [1] is T1, Flag-SNW1 (human) (UniProt Q13573).
T1 sequence: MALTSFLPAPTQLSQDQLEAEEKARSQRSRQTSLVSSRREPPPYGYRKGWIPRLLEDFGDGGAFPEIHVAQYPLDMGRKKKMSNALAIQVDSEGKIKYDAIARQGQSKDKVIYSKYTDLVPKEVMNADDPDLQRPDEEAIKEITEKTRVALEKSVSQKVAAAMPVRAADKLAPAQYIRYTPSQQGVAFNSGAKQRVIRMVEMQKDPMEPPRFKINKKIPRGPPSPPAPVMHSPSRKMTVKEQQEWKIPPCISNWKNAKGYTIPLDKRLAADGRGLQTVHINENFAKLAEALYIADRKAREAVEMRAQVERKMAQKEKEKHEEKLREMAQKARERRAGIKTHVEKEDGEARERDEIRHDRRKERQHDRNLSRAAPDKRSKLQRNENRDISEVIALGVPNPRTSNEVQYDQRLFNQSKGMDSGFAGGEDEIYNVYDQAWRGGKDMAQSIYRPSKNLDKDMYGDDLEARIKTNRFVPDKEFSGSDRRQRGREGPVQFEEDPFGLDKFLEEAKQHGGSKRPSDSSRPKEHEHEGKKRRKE
Put plainly: co-IP; 293T cells constitutively expressing Flag tag or Flag-SNW1, immunoprecipitated with anti-Flag antibody, immunoblotted with antibodies for the endogenous proteins.

Assay [2] deals with T2, Flag-tagged EFTUD2-1-260 (human) (UniProt Q15029).
T2 sequence: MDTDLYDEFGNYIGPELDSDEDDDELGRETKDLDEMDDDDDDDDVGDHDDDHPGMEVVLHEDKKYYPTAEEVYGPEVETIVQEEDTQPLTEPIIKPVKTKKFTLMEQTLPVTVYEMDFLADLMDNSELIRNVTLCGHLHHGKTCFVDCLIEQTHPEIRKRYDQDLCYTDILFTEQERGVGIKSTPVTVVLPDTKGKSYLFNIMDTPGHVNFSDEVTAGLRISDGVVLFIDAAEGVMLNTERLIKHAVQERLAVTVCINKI
Put plainly: co-IP; 293T cells co-transfected with Flag- and GFP-tagged constructs, lysed after 24 h, immunoprecipitated with anti-Flag antibody, washed four times with lysis buffer, immunoblotted with anti-GFP antibody.

The target in assay [3] is T3, Flag-tagged full-length EFTUD2 (human) (UniProt Q15029).
T3 sequence: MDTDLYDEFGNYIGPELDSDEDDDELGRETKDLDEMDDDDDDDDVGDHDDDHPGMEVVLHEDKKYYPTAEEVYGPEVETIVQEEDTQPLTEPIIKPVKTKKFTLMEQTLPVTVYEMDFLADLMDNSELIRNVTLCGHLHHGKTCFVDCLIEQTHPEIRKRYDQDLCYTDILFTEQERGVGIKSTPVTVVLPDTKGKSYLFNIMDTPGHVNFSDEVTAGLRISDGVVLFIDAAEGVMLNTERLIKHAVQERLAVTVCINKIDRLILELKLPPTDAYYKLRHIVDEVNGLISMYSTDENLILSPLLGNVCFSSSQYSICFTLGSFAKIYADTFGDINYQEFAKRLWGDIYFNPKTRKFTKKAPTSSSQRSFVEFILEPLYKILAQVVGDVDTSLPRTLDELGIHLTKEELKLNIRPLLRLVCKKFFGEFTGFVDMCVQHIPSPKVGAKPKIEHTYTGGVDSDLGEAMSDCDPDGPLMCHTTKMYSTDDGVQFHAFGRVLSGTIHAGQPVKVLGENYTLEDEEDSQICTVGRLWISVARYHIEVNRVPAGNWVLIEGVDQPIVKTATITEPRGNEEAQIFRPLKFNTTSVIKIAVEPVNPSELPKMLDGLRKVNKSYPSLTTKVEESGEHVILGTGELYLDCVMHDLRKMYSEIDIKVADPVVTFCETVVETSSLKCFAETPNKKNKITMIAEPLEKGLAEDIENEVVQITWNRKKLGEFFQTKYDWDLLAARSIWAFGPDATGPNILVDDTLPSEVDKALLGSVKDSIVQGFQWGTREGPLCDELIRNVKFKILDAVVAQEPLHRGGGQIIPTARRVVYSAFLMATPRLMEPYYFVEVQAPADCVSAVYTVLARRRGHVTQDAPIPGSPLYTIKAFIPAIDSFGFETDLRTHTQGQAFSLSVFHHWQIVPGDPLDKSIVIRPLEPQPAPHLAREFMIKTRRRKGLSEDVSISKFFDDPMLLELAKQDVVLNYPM
Described as above.

For assay [4], the target named is T1, Flag-SNW1 (human). The assay is described as above.
Assay [5] deals with T4, GST-fused SNW1-174-335 (human) (UniProt Q13573).
T4 sequence: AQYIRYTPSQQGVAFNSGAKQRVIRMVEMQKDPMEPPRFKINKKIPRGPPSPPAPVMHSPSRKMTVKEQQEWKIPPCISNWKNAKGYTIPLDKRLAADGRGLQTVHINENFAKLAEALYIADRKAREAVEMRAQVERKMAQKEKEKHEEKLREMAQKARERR
Put plainly: pull-down; GST-fused SNW1-174-335 bound to glutathione agarose beads mixed with in vitro-translated HA-tagged proteins for 1 h, washed four times with lysis buffer, immunoblot; only the target purified.

As to “SNRNP200 (endogenous) (from UniProt O75643 1-2136)”, in assay [1], the binding result was “binds”.
Consider “GFP-SNRNP200 (from UniProt O75643 1-2136)”, for which the binding result is “no binding” in assay [2], “binds” in assay [3] and “binds” in assay [4].

B1: GFP-tagged SNRNP200 1607-2136 (domain or fragment, UniProt O75643 1607-2136)
chain: STLKETLLNGVGYLHEGLSPMERRLVEQLFSSGAIQVVVASRSLCWGMNVAAHLVIIMDTQYYNGKIHAYVDYPIYDVLQMVGHANRPLQDDEGRCVIMCQGSKKDFFKKFLYEPLPVESHLDHCMHDHFNAEIVTKTIENKQDAVDYLTWTFLYRRMTQNPNYYNLQGISHRHLSDHLSELVEQTLSDLEQSKCISIEDEMDVAPLNLGMIAAYYYINYTTIELFSMSLNAKTKVRGLIEIISNAAEYENIPIRHHEDNLLRQLAQKVPHKLNNPKFNDPHVKTNLLLQAHLSRMQLSAELQSDTEEILSKAIRLIQACVDVLSSNGWLSPALAAMELAQMVTQAMWSKDSYLKQLPHFTSEHIKRCTDKGVESVFDIMEMEDEERNALLQLTDSQIADVARFCNRYPNIELSYEVVDKDSIRSGGPVVVLVQLEREEEVTGPVIAPLFPQKREEGWWVVIGDAKSNSLISIKRLTLQQKAKVKLDFVAPATGAHNYTLYFMSDAYMGCDQEYKFSVDVKEAETDSDSD
On to B1, for which, in assay [4], the binding result is listed as “binds”.

B2: In vitro-translated HA-tagged SNRNP200 1607-2136 (domain or fragment, UniProt O75643 1607-2136)
chain: STLKETLLNGVGYLHEGLSPMERRLVEQLFSSGAIQVVVASRSLCWGMNVAAHLVIIMDTQYYNGKIHAYVDYPIYDVLQMVGHANRPLQDDEGRCVIMCQGSKKDFFKKFLYEPLPVESHLDHCMHDHFNAEIVTKTIENKQDAVDYLTWTFLYRRMTQNPNYYNLQGISHRHLSDHLSELVEQTLSDLEQSKCISIEDEMDVAPLNLGMIAAYYYINYTTIELFSMSLNAKTKVRGLIEIISNAAEYENIPIRHHEDNLLRQLAQKVPHKLNNPKFNDPHVKTNLLLQAHLSRMQLSAELQSDTEEILSKAIRLIQACVDVLSSNGWLSPALAAMELAQMVTQAMWSKDSYLKQLPHFTSEHIKRCTDKGVESVFDIMEMEDEERNALLQLTDSQIADVARFCNRYPNIELSYEVVDKDSIRSGGPVVVLVQLEREEEVTGPVIAPLFPQKREEGWWVVIGDAKSNSLISIKRLTLQQKAKVKLDFVAPATGAHNYTLYFMSDAYMGCDQEYKFSVDVKEAETDSDSD
Regarding B2, in assay [5], the binding entry is “binds”.

B3: GFP-tagged SNRNP200 1287-1606 (domain or fragment, UniProt O75643 1287-1606)
chain: RHLILPEKYPPPTELLDLQPLPVSALRNSAFESLYQDKFPFFNPIQTQVFNTVYNSDDNVFVGAPTGSGKTICAEFAILRMLLQSSEGRCVYITPMEALAEQVYMDWYEKFQDRLNKKVVLLTGETSTDLKLLGKGNIIISTPEKWDILSRRWKQRKNVQNINLFVVDEVHLIGGENGPVLEVICSRMRYISSQIERPIRIVALSSSLSNAKDVAHWLGCSATSTFNFHPNVRPVPLELHIQGFNISHTQTRLLSMAKPVYHAITKHSPKKPVIVFVPSRKQTRLTAIDILTTCAADIQRQRFLHCTEKDLIPYLEKLSD
Turning to B3, the binding entry in assay [4] is listed as “binds”.

B4: In vitro-translated HA-tagged SNRNP200 1287-1606 (domain or fragment, UniProt O75643 1287-1606)
chain: RHLILPEKYPPPTELLDLQPLPVSALRNSAFESLYQDKFPFFNPIQTQVFNTVYNSDDNVFVGAPTGSGKTICAEFAILRMLLQSSEGRCVYITPMEALAEQVYMDWYEKFQDRLNKKVVLLTGETSTDLKLLGKGNIIISTPEKWDILSRRWKQRKNVQNINLFVVDEVHLIGGENGPVLEVICSRMRYISSQIERPIRIVALSSSLSNAKDVAHWLGCSATSTFNFHPNVRPVPLELHIQGFNISHTQTRLLSMAKPVYHAITKHSPKKPVIVFVPSRKQTRLTAIDILTTCAADIQRQRFLHCTEKDLIPYLEKLSD
For B4, in assay [5], the binding entry is on record as “binds”.

B5: GFP-EFTUD2-1-260 (domain or fragment, UniProt Q15029 1-260)
chain: MDTDLYDEFGNYIGPELDSDEDDDELGRETKDLDEMDDDDDDDDVGDHDDDHPGMEVVLHEDKKYYPTAEEVYGPEVETIVQEEDTQPLTEPIIKPVKTKKFTLMEQTLPVTVYEMDFLADLMDNSELIRNVTLCGHLHHGKTCFVDCLIEQTHPEIRKRYDQDLCYTDILFTEQERGVGIKSTPVTVVLPDTKGKSYLFNIMDTPGHVNFSDEVTAGLRISDGVVLFIDAAEGVMLNTERLIKHAVQERLAVTVCINKI
Regarding B5, in assay [4], the binding result is on record as “binds”.

B6: In vitro-translated HA-tagged EFTUD2-1-260 (domain or fragment, UniProt Q15029 1-260)
chain: MDTDLYDEFGNYIGPELDSDEDDDELGRETKDLDEMDDDDDDDDVGDHDDDHPGMEVVLHEDKKYYPTAEEVYGPEVETIVQEEDTQPLTEPIIKPVKTKKFTLMEQTLPVTVYEMDFLADLMDNSELIRNVTLCGHLHHGKTCFVDCLIEQTHPEIRKRYDQDLCYTDILFTEQERGVGIKSTPVTVVLPDTKGKSYLFNIMDTPGHVNFSDEVTAGLRISDGVVLFIDAAEGVMLNTERLIKHAVQERLAVTVCINKI
Take B6: the binding result in assay [5] is recorded as “binds”.
